Hit rate of the full screen: of about 310,000 compounds, about 14,000 (4.5%) showed an effect of 50% or more. The effect is printed as a negative number. Some of the results follow.
These compounds were tested against human ether-à-go-go-related gene (hERG) potassium channel (human, UniProt Q12809) (assay: primary screen, population patch clamp on CHO cells stably expressing hERG).
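Further: peak tail current of the secondary pulse compared with the same well before compound.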

human ether-à-go-go-related gene (hERG) potassium channel, sequence (Q12809 whole entry, looked up): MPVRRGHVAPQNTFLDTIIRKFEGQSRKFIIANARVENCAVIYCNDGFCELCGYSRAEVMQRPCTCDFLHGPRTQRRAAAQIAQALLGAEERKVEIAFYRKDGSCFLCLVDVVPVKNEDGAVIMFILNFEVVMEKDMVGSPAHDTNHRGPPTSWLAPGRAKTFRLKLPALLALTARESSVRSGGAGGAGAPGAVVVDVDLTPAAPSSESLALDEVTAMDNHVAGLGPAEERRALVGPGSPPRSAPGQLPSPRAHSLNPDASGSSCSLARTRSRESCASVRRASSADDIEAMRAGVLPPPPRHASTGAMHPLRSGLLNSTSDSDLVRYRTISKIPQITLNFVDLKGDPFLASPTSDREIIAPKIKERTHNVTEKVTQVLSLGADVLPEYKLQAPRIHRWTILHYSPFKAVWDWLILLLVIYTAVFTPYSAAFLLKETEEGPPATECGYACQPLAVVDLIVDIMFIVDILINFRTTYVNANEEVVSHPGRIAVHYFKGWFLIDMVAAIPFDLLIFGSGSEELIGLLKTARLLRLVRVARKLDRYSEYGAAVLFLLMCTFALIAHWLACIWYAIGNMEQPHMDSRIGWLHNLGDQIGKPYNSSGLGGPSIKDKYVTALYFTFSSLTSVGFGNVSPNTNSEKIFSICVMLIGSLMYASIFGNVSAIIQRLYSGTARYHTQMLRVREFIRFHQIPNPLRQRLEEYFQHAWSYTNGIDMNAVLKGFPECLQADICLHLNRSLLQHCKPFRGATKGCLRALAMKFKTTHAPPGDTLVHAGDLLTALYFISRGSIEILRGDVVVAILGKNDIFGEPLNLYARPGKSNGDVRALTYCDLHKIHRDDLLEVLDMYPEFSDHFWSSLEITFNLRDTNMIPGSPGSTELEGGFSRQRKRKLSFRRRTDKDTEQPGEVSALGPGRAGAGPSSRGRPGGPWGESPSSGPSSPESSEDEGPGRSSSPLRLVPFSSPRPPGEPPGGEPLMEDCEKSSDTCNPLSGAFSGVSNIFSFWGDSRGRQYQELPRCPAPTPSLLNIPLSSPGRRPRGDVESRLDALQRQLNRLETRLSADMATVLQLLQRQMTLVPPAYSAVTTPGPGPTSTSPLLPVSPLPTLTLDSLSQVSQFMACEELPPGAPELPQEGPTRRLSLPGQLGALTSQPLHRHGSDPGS

First: O=C1CN(c2nc(-c3ccccc3)c3cc(Cl)ccc3n2)c2ccccc2N1
Second: COCCCn1c(-c2cccc(Cl)c2)nc2c1c(=O)[nH]c(=O)n2Cc1ccccc1
The “hERG current change (%, negative = inhibition) at 10uM” value of the first is higher: 13.1% for the first, -0.77% for the second.

Going from `CCN(c1ccccc1)S(=O)(=O)c1ccc2[nH]cc(C(=O)NCCOC)c(=O)c2c1` to `CCOc1ccc(S(=O)(=O)NCCC(=O)NCCOc2ccccc2OC)cc1`, the “hERG current change (%, negative = inhibition) at 10uM” value falls from 18.5% to -5.42%.

Going from `CCOC(=O)c1c(S(=O)(=O)N2c3ccccc3CC2C)c(C)n(C)c1C` (centres unmarked) to `Cc1cc(C)c(OCC(=O)OCC(=O)N2c3ccccc3CC2C)c(C)c1` (centres unmarked), the “hERG current change (%, negative = inhibition) at 10uM” value rises from 13.1% to 21.3%.

Compared with `CCn1c(=O)cc(OCC(=O)NCc2ccc(C)o2)c2ccccc21`, `CCn1c(=O)c(C(C)=O)c(O)c2ccccc21` is higher in “hERG current change (%, negative = inhibition) at 10uM” value: -14.7% for the first, 14.3% for the second.

Going from `O=C(CN1CCOCC1)N1c2ccccc2Sc2ccccc21` to `Nc1c(N2CCN(c3ccccc3)CC2)c2ccccc2oc1=O`, the “hERG current change (%, negative = inhibition) at 10uM” value falls from 13.8% to -50.1%.

Compared with `O=C(N[C@H](C(=O)O)c1ccccc1)C1CCC(Cn2nnc3ccccc3c2=O)CC1` (some centres unmarked), `O=S(=O)(NCc1ccccc1)c1ccccc1Br` is higher in “hERG current change (%, negative = inhibition) at 10uM” value: -10% for the first, -7.71% for the second.

Going from `Cc1ccc(/C=C/C(=O)NC(C)c2ccccc2)cc1` (centres unmarked) to `O=C(/C=C/c1ccccc1Cl)NCCc1ccccc1`, the “hERG current change (%, negative = inhibition) at 10uM” value falls from -4.84% to -12.5%.

Compared with `CC(=O)Nc1ccc(NC(=O)COC(=O)c2c(C)nn(-c3ccccc3)c2C)cc1`, `COc1cc(C(=O)NC2CCCc3ccccc32)ccc1OCC(=O)Nc1ccc(F)cc1` (centres unmarked) is higher in “hERG current change (%, negative = inhibition) at 10uM” value: -4.07% for the first, 11.3% for the second.

Compared with `COc1cccc(CN2C(=O)CN(C3CCCCC3)C(=O)C2c2ccc(F)cc2)c1` (centres unmarked), `O=C1CC(Nc2ccc(N3CCOCC3)cc2)C(=O)N1c1ccccc1F` (centres unmarked) is higher in “hERG current change (%, negative = inhibition) at 10uM” value: -35.6% for the first, 0.895% for the second.

First: NS(=O)(=O)c1ccc(NC(=O)CSc2ncccn2)cc1
Second: Cc1ccc(-c2n[nH]c(=O)c3ccccc23)cc1S(N)(=O)=O
The “hERG current change (%, negative = inhibition) at 10uM” value of the first is higher: 8.6% for the first, 2.43% for the second.

Compared with `O=C(Nn1c(O)c(C=C2N=c3ccccc3=N2)sc1=S)c1ccccc1Cl`, `O=C(N/N=C/c1coc2ccccc2c1=O)c1ccc(Cl)cc1` is higher in “hERG current change (%, negative = inhibition) at 10uM” value: 2.54% for the first, 21.7% for the second.

Compared with `N#C/C(=C\c1c(Oc2ccc(Cl)cc2)nc2ccccn2c1=O)C(=O)NC1CCS(=O)(=O)C1` (centres unmarked), `CC(OC(=O)C1CCN(S(=O)(=O)c2ccc(Cl)cc2)CC1)C(=O)N1CCc2ccccc21` (centres unmarked) is higher in “hERG current change (%, negative = inhibition) at 10uM” value: -16.9% for the first, -16.4% for the second.

Going from `CCN(CC(=O)Nc1ccc2c(c1)OCCO2)C(=O)c1cc(=O)[nH]c2ccccc12` to `CCN(CC)c1ccc(C2C3CCCCC3(O)CCN2CC(=O)Nc2ccccc2)cc1` (centres unmarked), the “hERG current change (%, negative = inhibition) at 10uM” value falls from 3.21% to -6.69%.

Going from `COc1ccc(CCNCc2ccccn2)cc1OC` to `COc1ccccc1CNC(=O)CSc1nc2nc(C)cc(C)n2n1`, the “hERG current change (%, negative = inhibition) at 10uM” value falls from 0.278% to -3.37%.

Compared with `O=C(CCc1nnc2ccc(NCc3ccccc3Cl)nn12)N1CCC2(CC1)OCCO2`, `O=C1CC(Nc2ccccc2)C(=O)N1c1ccc(N2CCOCC2)cc1` (centres unmarked) is higher in “hERG current change (%, negative = inhibition) at 10uM” value: -67.7% for the first, 1.75% for the second.

Going from `CC(C)CC1COC(=O)N1` (centres unmarked) to `CC(C)Cc1nc(S(=O)(=O)c2ccc(Cl)cc2)c(N2CCOCC2)o1`, the “hERG current change (%, negative = inhibition) at 10uM” value falls from 3.03% to -6.14%.

First: COc1ccc(C(=O)COC(=O)CCn2nnc(-c3cccs3)n2)cc1
Second: CSc1ncccc1C(=O)OCC(=O)c1ccccc1
The “hERG current change (%, negative = inhibition) at 10uM” value of the first is lower: 10.6% for the first, 35% for the second.

First: CCc1nnc(NC(=O)c2sc3nc4c(cc3c2N)CCCCC4)s1
Second: CC(C)c1nnc(NC(=O)c2ccc3ccccc3c2)s1
The “hERG current change (%, negative = inhibition) at 10uM” value of the first is lower: -12.1% for the first, 2.94% for the second.

First: CCc1cc(C(=O)N2CCN(S(=O)(=O)c3ccc(Cl)cc3)CC2)sc1C
Second: COc1ccccc1NC(=O)C1CCCN(c2nc(C)cc(C)n2)C1 (centres unmarked)
The “hERG current change (%, negative = inhibition) at 10uM” value of the first is higher: 10.3% for the first, -10% for the second.

Compared with `Cc1nc(CCN2C(=O)c3ccccc3C2=O)cs1`, `Cc1cc(N2CC(C)OC(C)C2)nc2ccccc12` (centres unmarked) is lower in “hERG current change (%, negative = inhibition) at 10uM” value: 1.17% for the first, -31.2% for the second.

Going from `Fc1ccc(-c2cnn3c(-c4ccncc4)ccnc23)cc1` to `CC(Sc1nnnn1-c1ccc(O)cc1)C(=O)NNC(=O)c1ccc(F)cc1` (centres unmarked), the “hERG current change (%, negative = inhibition) at 10uM” value rises from 2.27% to 3.52%.

Compared with `O=c1oc2c(-c3ccc([N+](=O)[O-])cc3)cc(O)cc2s1`, `Cc1ccc(C(=O)Nc2ccc(F)cc2)cc1NC1=NC2CS(=O)(=O)CC2S1` (centres unmarked) is higher in “hERG current change (%, negative = inhibition) at 10uM” value: 11.3% for the first, 13.5% for the second.
